40 sequences from the supplement of paper PMC10441789 can be followed below.

The other results are listed elsewhere or left out. Antibody binding of pooled human sera (four to six donors per pool; dilution not stated) to peptides of the Trypanosoma cruzi antigen TSSA on microarrays. Quantile-normalised fluorescence in arbitrary units, mean of duplicate arrays; higher = more binding. No active / inactive call. The uninfected pools are read here as the healthy donors of the same country. The strongest signals lie near the top of the scale (about 60,000).

This test deals with pooled sera of uninfected people, Brazil. The test can be described thus: antibody binding signal (normalised fluorescence) (arbitrary fluorescence units); higher = stronger serum antibody binding to peptide. The protocol:
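Microarray of overlapping 15-residue peptides of the four Trypanosoma cruzi TSSA reference variants and 8- to 13-residue peptides of TSSAII 24-62, probed with one serum pool per country.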
Consider ATGEAPSQPGA, for which the antibody binding signal turned out to be 222.

In turn, SGEAEASSNKNDGSL displayed an antibody binding signal of 118.

With NGGSTISTPPSGTDK, the antibody binding signal came out at 637.

For TANGGSTSSTPPGTD, the antibody binding signal amounted to 163.

In turn, EAPSQPGASSGEA yielded an antibody binding signal of 139.

Turning to GEAPSQPGASS, the antibody binding signal amounted to 165.

Sequence LTACTTANGGSTSST yielded an antibody binding signal of 342.

KPATGEAPSQ: the antibody binding signal was 213.

Consider QPGASSGE, for which the antibody binding signal was 141.

Regarding LSACTTANGGSTSST, the antibody binding signal was determined as 231.

The sequence PATGEAPSQPG displayed an antibody binding signal of 379.

Take GSTSSTPPSG: the antibody binding signal worked out at 391.

The sequence STSSTPPSGT displayed an antibody binding signal of 183.

In turn, APSQPGASSG came in with an antibody binding signal of 454.

For the sequence NGGSTSSTPP, the antibody binding signal is 208.

Sequence ACTTANGGSTSSTPP registered an antibody binding signal of 316.

In turn, PGASSGEAEAS yielded an antibody binding signal of 99.3.

Sequence PPSGTENKPA came in with an antibody binding signal of 499.

For KKTAAGGTPSPSGAS, the antibody binding signal was 357.

For the sequence PPSGTENK, the antibody binding signal worked out at 377.

The sequence TPPSGTDKKTAAGEA displayed an antibody binding signal of 423.

Turning to TSSTPPSGT, the antibody binding signal is 209.

TANGGSTSS returned an antibody binding signal of 611.

As to ENKPATGEAPSQPGA, the antibody binding signal turned out to be 394.

For PPSGTENKPATGEAP, the antibody binding signal amounted to 785.

The sequence NGGSTSSTPPS came in with an antibody binding signal of 210.

The sequence ISTPPSGTDKKTAAG displayed an antibody binding signal of 150.

Turning to NGGSTSST, the antibody binding signal came out at 197.

As for TENKPATGEAPS, the antibody binding signal was found to be 280.

Sequence PGTDKKTAAGGTPSP came in with an antibody binding signal of 1050.

As to NGGSTSSTPPGTDKK, the antibody binding signal came out at 124.

For the sequence STPPSGTEKKAAAGE, the antibody binding signal was 450.

The sequence GGSTSSTPPS yielded an antibody binding signal of 241.

PSQPGASSG yielded an antibody binding signal of 865.

ANGGSTSSTPPGTDK displayed an antibody binding signal of 311.

Turning to TSSTPPSGTEN, the antibody binding signal stood at 140.

With TPPSGTENKPATG, the antibody binding signal turned out to be 878.

In turn, AAGEAPSPSGASSGE yielded an antibody binding signal of 145.

In turn, TISTPPSGTEKKAAA yielded an antibody binding signal of 235.

As to EAPSQPGAS, the antibody binding signal was 150.
